Assay results as given in the supplement of paper PMC12217912.
Some of the results follow. Sequences were assembled here from the parent chain. Values near 0.05 are background.

B1: TEV protease; numbered along this chain (parent)
chain: MGESLFKGPRDYNPISSSICHLTNESDGHTTSLYGIGFGPFIITNKHLFRRNNGTLVVQSLHGVFKVKDTTTLQQHLVDGRDMIIIRMPKDFPPFPQKLKFREPQREERICLVTTNFQTKSMSSMVSDTSCTFPSGDGIFWKHWIQTKDGQCGSPLVSTRDGFIVGIHSASNFTNTNNYFTSVPKNFMELLTNQEAQQWVSGWRLNADSVLWGGHKVFMVKPEEPFQPVKEATQL

Variants of: B1
Test: raw area under fraction-flipped curve 0-4 h after induction (AUC4h, not background-subtracted), DNA-recorder readout of cleavage of the substrate (dimensionless); higher = more cleavage of the substrate by the protease variant
Conditions: temperature: 34 °C; time window: 0-4 h after rhamnose induction
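Also: Bxb1 expression induced with 0.2% (w/v) L-rhamnose at OD600 near 0.5, cultures sampled hourly, flipped fraction per protease–substrate barcode pair counted by paired-end Illumina sequencing.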

Variant	area with substrate ENLYDQS	area with substrate ENLYEQS	area with substrate ENLYGQS	area with substrate ENLYHQS	area with substrate ENLYIQS	area with substrate ENLYKQS	area with substrate ENLYMQS	area with substrate ENLYNQS	area with substrate ENLYPQS	area with substrate ENLYQQS	area with substrate ENLYRQS	area with substrate ENLYSQS	area with substrate ENLYVQS	area with substrate ENLYWQS	area with substrate ENLYYQS	area with substrate ENLYLQS	area with substrate ENLYTQS
S169G	0.0523	0.0633	0.0588	0.0649	0.0546	0.0651	0.0595	0.0545	0.0556	0.0625	0.0686	0.0763	0.067	0.061	0.0648	–	–
S171D	0.0602	0.0665	0.06	0.0645	–	0.0655	–	0.0511	0.0603	0.0372	–	0.0609	0.0696	0.0574	0.0624	–	–
F173R	0.0114	–	0.067	0.0525	–	–	–	–	–	–	–	–	0.113	0.117	0.0429	0.0622	–
Y179N	0.0626	–	–	0.0297	–	0.0218	–	–	0.0339	–	–	–	0.0678	–	–	0.063	0.0587
F180Q	0.0376	–	–	–	–	0.0261	–	–	0.0533	–	–	–	0.0608	–	–	–	–
T181R	0.0548	0.0542	–	0.0449	0.0463	0.0439	0.0466	–	0.0371	0.0491	0.0492	0.0517	0.0506	0.0491	0.0577	–	0.047
S182Q	0.0624	0.06	0.0549	0.0585	0.165	0.0635	0.0853	0.0509	0.0805	0.0725	0.0576	0.0668	0.093	0.0588	–	0.0588	0.102
P184D	0.0623	0.0645	0.0605	–	–	0.0378	0.079	0.0505	0.0606	0.0479	0.0534	–	–	0.0525	–	0.0873	–
K185W	0.0751	0.0611	0.0687	0.0844	0.113	0.0669	0.0835	0.0587	0.0654	0.0604	0.0561	0.0745	0.0929	0.085	0.0587	0.0982	0.0764
N186C	0.0592	0.0883	–	0.0816	0.12	0.0253	–	0.0645	0.0581	–	–	–	–	0.0523	–	–	–
F187W	0.0586	0.0758	0.0516	0.0552	0.118	0.0612	0.0685	0.0645	0.0636	–	0.0396	0.0776	0.0931	0.0721	–	0.0896	0.0727
E189H	0.034	0.0544	0.0597	0.064	0.121	–	0.0744	0.0645	0.0635	0.0625	–	0.0852	–	0.0713	–	0.111	0.114
L190C	0.0618	0.12	0.0592	0.0647	–	0.0483	–	0.0333	–	0.0411	–	0.0566	0.116	0.111	0.0679	–	–
L190Q	0.0706	0.0669	0.0811	–	0.0718	0.0422	0.0918	–	0.0514	0.0804	0.0624	0.0745	–	0.0746	–	0.0904	0.062
N193R	0.0677	–	–	0.0208	–	–	–	–	0.0717	–	–	–	–	–	–	–	–
Q194K	0.0692	0.0659	0.0663	–	0.147	–	–	–	0.0709	–	0.0608	–	0.211	–	–	–	–
E195V	0.0431	–	–	0.0663	–	0.0231	–	–	–	–	–	–	–	0.0661	–	–	–

Variant	area with substrate ENLYDQS	area with substrate ENLYEQS	area with substrate ENLYGQS	area with substrate ENLYHQS	area with substrate ENLYIQS	area with substrate ENLYKQS	area with substrate ENLYMQS	area with substrate ENLYNQS	area with substrate ENLYPQS	area with substrate ENLYQQS	area with substrate ENLYRQS	area with substrate ENLYSQS	area with substrate ENLYVQS	area with substrate ENLYWQS	area with substrate ENLYYQS	area with substrate ENLYLQS	area with substrate ENLYTQS
A196R	0.0771	–	–	0.0684	–	–	–	–	–	–	–	–	–	–	–	–	–
Q197F	0.0731	0.073	0.066	–	0.147	0.0299	–	–	0.0767	0.0638	0.057	–	0.168	0.0762	0.079	–	0.0956
Q197N	0.0632	0.0412	0.037	0.0655	–	0.0573	0.0632	0.0649	–	–	–	0.0549	–	–	0.066	–	–
V200R	0.0519	–	0.0525	0.0238	–	0.06	0.0547	0.0593	–	–	0.0709	–	0.0941	–	0.0553	0.0755	–
G202E	0.061	0.0703	–	0.0668	–	0.0608	0.0473	–	0.06	0.0568	0.0547	–	0.0605	0.0655	0.0941	0.0651	–
W203L	0.0705	0.0569	0.0718	0.0638	–	0.0538	0.0582	–	0.0617	0.0591	–	0.0565	0.0502	–	–	0.0501	–
L205D	0.082	0.0609	–	0.0516	0.0753	–	–	0.0656	0.0484	–	–	0.0572	–	0.0215	–	–	–
N206A	0.0568	–	–	–	–	0.0211	–	–	–	0.0612	–	–	–	–	–	–	–
S209L	0.0392	–	0.0715	0.0761	0.0796	0.0663	0.102	0.0657	0.062	0.0454	–	–	–	–	–	–	–
V210F	0.0552	–	0.0686	0.0868	0.1	0.0643	0.0882	–	–	0.0454	0.0684	0.0671	–	–	0.055	–	–
V210T	0.06	0.0775	0.0663	0.0682	–	0.0919	0.0584	0.0894	0.0738	0.0686	0.0573	–	0.116	0.0759	–	–	–
G214Q	0.0662	–	–	–	–	–	–	–	0.092	–	0.0624	0.0553	–	–	0.047	0.0666	–
H215M	0.0527	0.0599	0.0549	0.056	–	0.059	–	0.0417	0.0599	–	0.0613	–	0.0803	0.0552	0.0545	–	–
F218A	0.0389	0.0749	0.0546	0.0546	0.0758	0.0435	0.0695	0.0581	0.0605	–	0.0666	–	0.0936	0.0837	0.0584	–	0.0681
F218D	0.0679	–	0.0492	–	0.0661	0.0763	0.053	0.0429	0.0526	–	–	–	0.0758	–	0.0663	–	0.0758
F218K	0.0699	–	0.0724	0.0514	0.0578	–	0.0632	0.0596	0.059	–	–	0.0713	0.082	–	–	–	0.07
V220T	0.0485	0.0637	–	0.0515	0.145	–	–	–	0.0629	0.072	0.0524	–	–	0.0419	–	–	–
